Test results: PubChem BioAssay (NCATS)
The shares of active, inactive and inconclusive entries below differ from those in the screen. Potencies of inconclusive entries are left out as doubtful fits. The source made the active and inactive calls. Calls come from the whole dose curve; as a rule, active = well fitted inhibition curve with a large enough effect; inconclusive = small, poorly fitted or top-dose-only effect; inactive = no such curve, though single readings can be large or run the other way.

What follows are molecules tested against Cytochrome P450 2D6 (Homo sapiens) (UniProt P10635) (assay: qHTS Assay for Inhibitors and Substrates of Cytochrome P450 2D6 (AID 891;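 note: luciferin methyl ether substrate demethylated by CYP2D6 with NADPH regeneration; nearly all actives have a fitted effect of over 60% in size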; for activity change, negative = inhibition: top concentration of the series differs between compounds)). Details: recombinant CYP2D6, luciferin-ME EGE luminescence; series mostly up to 11.4 µM; activity change, negative = inhibition: at the top concentration.
Chain of UniProt P10635 (P10635 whole entry, looked up): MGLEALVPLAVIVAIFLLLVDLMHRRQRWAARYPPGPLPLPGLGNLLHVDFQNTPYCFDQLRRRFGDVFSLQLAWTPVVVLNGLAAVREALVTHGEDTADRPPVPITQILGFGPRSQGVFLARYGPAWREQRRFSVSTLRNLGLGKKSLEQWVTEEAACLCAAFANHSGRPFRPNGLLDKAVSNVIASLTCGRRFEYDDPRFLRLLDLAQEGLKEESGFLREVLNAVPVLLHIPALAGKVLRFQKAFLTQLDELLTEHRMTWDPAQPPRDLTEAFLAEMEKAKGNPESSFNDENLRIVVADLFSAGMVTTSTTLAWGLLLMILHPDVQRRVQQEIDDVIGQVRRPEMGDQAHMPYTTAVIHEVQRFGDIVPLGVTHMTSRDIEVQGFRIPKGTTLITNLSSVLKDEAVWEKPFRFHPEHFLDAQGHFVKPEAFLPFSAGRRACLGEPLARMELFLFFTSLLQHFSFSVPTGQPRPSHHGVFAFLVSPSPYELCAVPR
Outline: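 Luminescent read-out of luciferin formed by 5 nM human CYP2D6 demethylating 30 uM Luciferin-ME EGE (Km level) over 60 min at room temperature after NADPH regeneration addition. Data normalized to full inhibition by 1.43 uM quinidine.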
% is set by controls: 0 for no effect and ±100 for the full control effect; potency is the fitted concentration of half-maximal effect; tags give direction and shape of the fitted curve.

Row | SMILES | Potency | activity change, negative = inhibition
1 | Cc1cc(C(=O)N[C@H](c2ccccc2)[C@@]2(C)C[C@@H]2[C@@H](C)C(=O)Nc2ccc3ccccc3c2)n(C)n1 | active: 0.0398 µM | –
2 | CC(=O)OC[C@@H]1O[C@@H](O/N=C2/C[C@@H](O)[C@@H](O)[C@@H]3[C@H]4C(=O)N(c5ccc(F)cc5F)C(=O)[C@@H]4CC[C@@H]23)[C@H](OC(C)=O)[C@H](OC(C)=O)[C@@H]1OC(C)=O | inconclusive [inhibitor, single point] | –
3 | CC(=O)OC[C@@H]1O[C@@H](O/N=C2/C[C@@H](O)[C@@H](O)[C@@H]3[C@@H]4C(=O)N(C[C@@H]5CCCO5)C(=O)[C@H]4CC[C@H]23)[C@H](OC(C)=O)[C@H](OC(C)=O)[C@@H]1OC(C)=O | inconclusive [inhibitor, single point] | –
4 | O[C@]1(c2ccccc2)c2ccccc2NC2=NCCN21 | inconclusive [inhibitor, partial curve] | –
5 | C/C(CCN1CCCCc2nc(C)c(C)cc21)=N\OC[C@@H](O)COCc1ccco1 | inconclusive [inhibitor, single point] | –
6 | Cc1cc(C)cc(C#CC2C=CC(Oc3ccc(C4CCCC4)cc3)C(CO)O2)c1 (centres undefined) | – | inactive: -6.76%
7 | COc1ccc([C@@H](Nc2ncccn2)c2cc3c(cc2O)OCO3)cc1 | inconclusive [inhibitor, partial curve] | –
8 | NCCC[C@@H](CC(=O)N[C@@H]1CCNC[C@H]1C(=O)N[C@H](CC(=O)N[C@@H](CCC(=O)O)CC(=O)O)Cc1c[nH]c2ccccc12)NC(=O)C[C@H](Cc1c[nH]c2ccccc12)NC(=O)[C@@H]1CCCC[C@H]1N | – | inactive: 1.96% [at 57.1 µM]
9 | COC(=O)NC(CC(C)=O)c1ccc(F)cc1 (centres undefined) | – | inactive: -0.523%
10 | Cc1c(O)c(=O)c2ccccc2n1C | – | inactive: 2.15%
11 | CO[C@H]1COC(=O)CCC[C@H](C)[C@H](OC)COC(=O)C/C=C\[C@@H]1C | – | inactive: 23.2%
12 | COc1ccccc1CN1CCC2(CC1)CCN(C(C)=O)CC2 | active: 5.01 µM | –
13 | CC(=O)OC[C@H]1O[C@@H](O/N=C2/[C@H]3O[C@@H]3[C@@H](O)[C@H]3[C@H]2CCn2c(=O)n(-c4ccccc4)c(=O)n23)[C@H](OC(C)=O)[C@@H](OC(C)=O)[C@@H]1OC(C)=O | inconclusive [inhibitor, partial curve] | –
14 | NS(=O)(=O)c1cc2c(cc1Cl)=NC(CCC(=O)O)=NS=2(=O)O | – | inactive: 22.4%
15 | O=C(/C=C/c1ccccc1)N1CCCC1CO (centres undefined) | – | inactive: 12.8%
16 | Cn1c(C[C@@H](O)c2nc3ccccc3n2C)nc2ccccc21 | inconclusive [inhibitor, partial curve] | –
17 | COC(=O)C1=C(C)N(Cc2ccccc2)[C@]23O[C@](C(=O)OC)(C(=O)N2C1c1ccccc1)C1C(=O)N(c2ccccc2)C(=O)C13 (some centres undefined) | inactive | –
18 | Nc1nc(N)nc(CCCCc2nc(N)nc(N)n2)n1 | – | inactive: -2.12%
19 | Oc1ccc2ccccc2c1C=NCc1c(O)ccc2ccccc12 | inconclusive [inhibitor, partial curve] | –
20 | COc1ccc(/C=C/NC(=O)c2ccc(OC)cc2)cc1 | – | inactive: 17.1%
21 | C/C=C/OC(=O)NC(c1cccc(C)c1)[C@@]1(C(=O)OCC)CCCC1=O (some centres undefined) | – | inactive: -8.17%
22 | OCC1OC(c2ccccc2)C=CC1Oc1ccc(C2CCCC2)cc1 (centres undefined) | – | inactive: 1.23%
23 | COc1ccc(O[C@H]2C=C[C@@H](c3ccccc3)O[C@H]2COC(=O)CC/C(C)=N/OCC[C@@H]2C=C[C@H](OC(C)=O)[C@H](COC(C)=O)O2)cc1 | inconclusive [inhibitor, partial curve] | –
24 | c1ccc2c(CN3CCN(Cc4c[nH]c5ccccc45)CC3)c[nH]c2c1 | active: 2.51 µM | –
25 | COC1C(O)COC1/C=C/c1ccccc1 (centres undefined) | – | inactive: 6.85%
26 | CCCCCCC#CC1C=CC(Oc2ccc(C=O)cc2)C(CO)O1 (centres undefined) | – | inactive: 6.35%
27 | O[C@@H](C1=C/C(=C\c2ccncc2)c2ccccc21)c1ccncc1 | inconclusive [inhibitor, partial curve] | –
28 | Nc1nc(SCc2ccccc2[N+](=O)[O-])c2[nH]cnc2n1 | inconclusive [inhibitor, partial curve] | –
29 | C=CC[C@@H]1C=C[C@H](O/N=C(\C)CCN2CCCc3nc(C)c(C)cc32)[C@H](CO)O1 | inconclusive [inhibitor, partial curve] | –
